Data from article PMC4336329 (PLoS ONE, 2015).
Out of some 310,000 compounds screened, about 2,200 (0.71%) showed an effect of 50% or more. The effect is printed as a negative number. The list shows a part of the results.

molecular target: human ether-à-go-go-related gene (hERG) potassium channel (human, UniProt Q12809); assay: primary screen, population patch clamp on CHO cells stably expressing hERG
Sequence (Q12809 whole entry, looked up): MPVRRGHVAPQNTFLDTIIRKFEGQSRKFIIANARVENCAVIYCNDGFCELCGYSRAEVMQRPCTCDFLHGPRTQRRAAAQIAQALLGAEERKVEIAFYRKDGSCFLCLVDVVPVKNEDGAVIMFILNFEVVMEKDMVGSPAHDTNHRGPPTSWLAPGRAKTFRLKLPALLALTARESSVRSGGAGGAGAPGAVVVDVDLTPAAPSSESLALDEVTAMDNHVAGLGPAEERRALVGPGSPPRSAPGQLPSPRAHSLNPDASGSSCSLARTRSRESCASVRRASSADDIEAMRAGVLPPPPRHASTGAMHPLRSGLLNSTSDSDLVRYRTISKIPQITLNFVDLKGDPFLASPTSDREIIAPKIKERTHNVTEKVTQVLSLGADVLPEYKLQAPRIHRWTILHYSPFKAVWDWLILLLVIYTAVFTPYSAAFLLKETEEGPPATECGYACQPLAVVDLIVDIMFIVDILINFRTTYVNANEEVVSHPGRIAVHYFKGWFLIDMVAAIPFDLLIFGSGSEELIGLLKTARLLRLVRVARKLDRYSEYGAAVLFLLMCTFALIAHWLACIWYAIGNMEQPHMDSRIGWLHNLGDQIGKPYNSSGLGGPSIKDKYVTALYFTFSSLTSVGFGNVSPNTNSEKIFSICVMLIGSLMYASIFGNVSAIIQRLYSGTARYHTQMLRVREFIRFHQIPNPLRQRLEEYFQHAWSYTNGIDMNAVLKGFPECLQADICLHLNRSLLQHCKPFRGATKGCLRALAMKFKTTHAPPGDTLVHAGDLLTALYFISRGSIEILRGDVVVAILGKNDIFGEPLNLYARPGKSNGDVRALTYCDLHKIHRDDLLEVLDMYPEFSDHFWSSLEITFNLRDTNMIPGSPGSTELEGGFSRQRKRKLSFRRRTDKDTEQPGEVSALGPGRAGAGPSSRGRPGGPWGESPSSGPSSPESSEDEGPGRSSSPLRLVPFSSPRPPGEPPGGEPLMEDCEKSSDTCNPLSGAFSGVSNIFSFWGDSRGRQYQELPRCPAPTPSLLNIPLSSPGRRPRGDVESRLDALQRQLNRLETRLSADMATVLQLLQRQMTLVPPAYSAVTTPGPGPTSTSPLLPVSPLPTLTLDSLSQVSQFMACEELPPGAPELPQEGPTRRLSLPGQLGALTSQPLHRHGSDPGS

Structure (SMILES)	hERG current change (%, negative = inhibition) at 1uM [%]
Cc1ccc(N(CC(=O)N2CCCC2)S(C)(=O)=O)c(C)c1	16.6
Cc1ccc(CNC(=O)c2cccnc2Sc2cccc(Cl)c2)cc1	-0.474
COc1ccc(OC)c(CC(NC(C)=O)C(=O)NC2CCN(c3cc(C)nc4ncnn34)CC2)c1 (stereo not drawn)	37.2
O=C(NC(=O)C(F)(F)F)Nc1ccc(S(=O)(=O)Nc2nccs2)cc1	15.5
COc1ccccc1CCNC(=O)CSc1nc(-c2ccco2)cc(C(F)(F)F)n1	13.5
CN(C)CC(C)(C)CNC(=O)c1cc(=O)c2ccccc2o1.Cl	14.1
COc1cccc(C2=NOC(C(=O)Nc3cc(OC)c(OC)c(OC)c3)C2)c1 (stereo not drawn)	10.1
N#CCCn1nc(-c2ccc([N+](=O)[O-])cc2)cc1Nc1ccccc1NC(=O)C(F)(F)F	10.6
S=C1NC[C@H](c2ccccc2)N1CC1CCCCC1	-1.22
COc1ccc(/C=N/NC(=O)CN2CCSCC2)cc1C	8.12
C=CCn1c(SCC(=O)N2CCc3ccccc3C2)nc2ccccc2c1=O	-3.47
C=CCNC(=O)CN(c1cc(Cl)ccc1OC)S(=O)(=O)c1ccc(C)c([N+](=O)[O-])c1	7.84
CCCNS(=O)(=O)c1cc(Br)cc2c1N(C(=O)CC)CC2	4.42
COc1cccc(-c2sc3ccc(OC)cc3c2-c2ccc(O)cc2)c1	16.6
COc1ccc(C(=O)NNC(=O)C2(C)CC2(Br)Br)cc1 (stereo not drawn)	19
Cc1n[nH]c(C)c1S(=O)(=O)N1CCC(C(=O)O)CC1.Cl	12.6
COc1cccc(-c2nc(CS(=O)(=O)CC(=O)Nc3ccccc3C)c(C)o2)c1	10.5
COc1ccc(/C=N/NC(=O)c2cccc([N+](=O)[O-])c2)cc1OS(=O)(=O)c1ccccc1	11.7
O=[N+]([O-])c1ccccc1-c1cc(-c2ccccc2)cc(-c2ccccc2)[n+]1Cc1ccccc1Cl.[O-][Cl+3]([O-])([O-])[O-]	-16.1
O=C1c2cccnc2C(Nc2ccccc2)N1Cc1ccco1 (stereo not drawn)	1.08
COc1ccc(S(=O)(=O)N2CCOC2CNC(=O)C(=O)NCc2ccco2)cc1OC (stereo not drawn)	0.774
Oc1ccc(/C=N/Nc2ncnc3nc[nH]c23)cc1	13.6
CCc1ccc(CNC(=O)CCS(=O)(=O)Cc2ccc(C)cc2)cc1	3.38
Cc1ccc(-c2nnn(CC(=O)N3CCCCC3)n2)c(-n2cnnn2)c1	3.23
CNCC(C)c1ccccc1.Cl (stereo not drawn)	11.2
CCCc1cc(=O)[nH]c(SCC(=O)c2[nH]c(C)c(C(=O)OCC)c2C)n1	-3.89
Cn1cnc2c1c(=O)n(Cc1ccccc1C#N)c(=O)n2C	15.8

Structure (SMILES)	hERG current change (%, negative = inhibition) at 1uM [%]
C=CCN(CC=C)C(=O)Cc1ccc(F)cc1	13.6
COc1ccccc1N1C(=O)C2ON(c3ccccc3)C(c3ccc(N(C)C)cc3)C2C1=O (stereo not drawn)	9.18
COCC(=O)N(CCc1ccc(OC)c(OC)c1)Cc1nc2ccccc2c(=O)[nH]1	4.96
Cc1ccc(-c2nn(-c3ccccc3)cc2C(=O)NC2CCC(O)CC2)cc1 (stereo not drawn)	3.57
S=C(NCc1ccco1)Nc1ccccn1	-0.557
Cc1ccc(OCc2cc(C(=O)N3CCC(C(O)C(C)C)CC3)no2)cc1C (stereo not drawn)	5.09
N/C(Cc1ccc([N+](=O)[O-])cc1)=N\OC(=O)c1ccccc1F	3.98
N#Cc1ccsc1NC(=O)CN1CCOCC1	7.61
Cc1ccc(C)c(NS(=O)(=O)c2ccc(OCC(=O)NCc3ccco3)cc2)c1	3.94
CN1C(=O)COc2ccc(C(=O)c3ccccc3C(=O)O)cc21	10.5
O=C(c1ccco1)N1CCN(C(=O)C2CCCN(S(=O)(=O)Cc3ccccc3)C2)CC1 (stereo not drawn)	-1.46
Cc1ccc(NC(=O)c2sc(N)nc2C)cc1	10.9
CCn1c(=N)c(S(=O)(=O)c2ccc(Cl)cc2)cc2c(=O)n3ccccc3nc21	1.43
O=C(CN1CC[n+]2c(-c3cccs3)csc21)c1ccc(Br)cc1.[Br-]	12.8
COc1ccc(NS(=O)(=O)c2ccc3oc(=O)c4[nH]c(=O)c(=O)n(C)c4c3c2)cc1	13
O=C(COC(=O)CNC(=O)c1sc2ccccc2c1Cl)Nc1cc(Cl)cc(Cl)c1	1.45
COc1ccc(NC(=O)C(CCSC)N2C(=O)c3ccccc3C2=O)cc1 (stereo not drawn)	5.12
Cc1ccc(C2(C)NC(=O)N(CC(=O)N3CCN(C(=O)c4cccs4)CC3)C2=O)cc1 (stereo not drawn)	10.5
CCOC(=O)c1cc2c(C(F)(F)F)cc(-c3ccccc3)nc2o1	11.4
O=C(NCc1ccccc1)c1ccc(-c2ccc(F)cc2)o1	-1.45
Cc1ccc(S(=O)(=O)N/N=C/c2c[nH]c3ccccc23)cc1	4.47
CC(=O)OC(C(=O)N1CCN(c2ccccc2F)CC1)c1ccccc1 (stereo not drawn)	-4.55
O=C(Nc1cc([N+](=O)[O-])ccc1O)c1cccc([N+](=O)[O-])c1	15.3
CS(=O)(=O)N(CC(=O)Nc1ccccc1C(=O)N1CCCC1)c1ccccc1Br	5.81
c1ccc2oc(CCc3nc4ccccc4o3)nc2c1	5.89
O=C(CCCn1c(=O)c2ccccc2n(CC(=O)N2CCN(c3ccccc3)CC2)c1=O)NCc1ccco1	9.61
Cc1oc(-c2ccccc2F)nc1CS(=O)(=O)CC(=O)NCCN(C)C1CCCCC1	0.43
